Results: the supplement of paper PMC12217912
Some of the results follow. Sequences were assembled here from the parent chain. Inactive controls read about 0.05.

B1: TEV protease; numbered along this chain (parent)
chain: MGESLFKGPRDYNPISSSICHLTNESDGHTTSLYGIGFGPFIITNKHLFRRNNGTLVVQSLHGVFKVKDTTTLQQHLVDGRDMIIIRMPKDFPPFPQKLKFREPQREERICLVTTNFQTKSMSSMVSDTSCTFPSGDGIFWKHWIQTKDGQCGSPLVSTRDGFIVGIHSASNFTNTNNYFTSVPKNFMELLTNQEAQQWVSGWRLNADSVLWGGHKVFMVKPEEPFQPVKEATQL

Variants of: B1
Assay: raw area under fraction-flipped curve 0-4 h after induction (AUC4h, not background-subtracted), DNA-recorder readout of cleavage of the substrate (dimensionless); higher = more cleavage of the substrate by the protease variant
Details: temperature: 34 °C; time window: 0-4 h after rhamnose induction
Method: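 In vivo DNA recorder in E. coli TOP10(DE3) ΔrhaA at 34 °C. Each TEVp single-site mutant (parent TEVp 0) is paired with a single-site variant of the 7-mer TEVs (canonical ENLYFQ|S). The substrate sits between flexible linkers in a Bxb1-sfGFP-TEVs-SsrA fusion, so cleavage stabilises Bxb1 and speeds flipping of a recombination array, read by NGS. The value is the raw area under the fraction-flipped curve over 0-4 h after rhamnose induction (AUC4h), with ≥20 reads per time point. It is not background-subtracted; inactive controls average about 0.047.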
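Also: Bxb1 expression induced with 0.2% (w/v) L-rhamnose at OD600 near 0.5, cultures sampled hourly, flipped fraction per protease–substrate barcode pair counted by paired-end Illumina sequencing.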

| Variant | area with substrate EALYFQS | area with substrate ECLYFQS | area with substrate EELYFQS | area with substrate EFLYFQS | area with substrate EGLYFQS | area with substrate EILYFQS | area with substrate EKLYFQS | area with substrate ELLYFQS | area with substrate EMLYFQS | area with substrate EQLYFQS | area with substrate ERLYFQS | area with substrate ESLYFQS | area with substrate ETLYFQS | area with substrate EVLYFQS | area with substrate EWLYFQS | area with substrate EYLYFQS | area with substrate EPLYFQS | area with substrate EHLYFQS | area with substrate EDLYFQS |
| --- | --- | --- | --- | --- | --- | --- | --- | --- | --- | --- | --- | --- | --- | --- | --- | --- | --- | --- | --- |
| A196M | 0.127 | 0.0931 | 0.127 | 0.11 | 0.116 | 0.109 | 0.102 | 0.102 | 0.146 | 0.148 | 0.15 | 0.112 | 0.129 | 0.138 | 0.103 | 0.14 | – | – | – |
| A196Q | 0.137 | 0.0963 | – | 0.0658 | – | – | 0.1 | – | 0.0885 | 0.143 | 0.121 | 0.115 | – | – | – | – | 0.134 | – | – |
| S201I | 0.131 | 0.0978 | 0.112 | 0.0893 | – | 0.098 | 0.114 | – | 0.0994 | 0.0939 | 0.105 | – | – | 0.0753 | 0.0947 | 0.077 | – | – | – |
| S201L | 0.105 | 0.0844 | – | – | – | 0.11 | 0.107 | – | 0.0906 | 0.0851 | – | – | 0.0957 | – | 0.0883 | 0.0836 | 0.0897 | – | – |
| G202M | 0.0818 | – | – | – | – | 0.0565 | – | 0.0753 | 0.0534 | 0.0703 | 0.0888 | – | 0.0779 | 0.0657 | 0.0775 | 0.0648 | – | 0.0866 | – |
| W203C | 0.0821 | 0.0622 | 0.0737 | – | 0.037 | 0.0502 | – | 0.0704 | – | 0.0739 | 0.0753 | 0.0546 | 0.0666 | 0.0519 | 0.082 | – | 0.0768 | – | 0.0721 |
| W203E | 0.0607 | 0.0598 | – | – | – | – | 0.0703 | 0.0608 | 0.108 | – | 0.0605 | 0.0539 | – | 0.0846 | 0.0523 | – | – | 0.0509 | – |
| R204W | 0.168 | 0.1 | 0.119 | 0.0923 | 0.105 | 0.0959 | 0.122 | 0.105 | 0.119 | 0.128 | 0.108 | 0.0975 | 0.106 | 0.102 | – | 0.0862 | – | 0.116 | 0.117 |
| N206T | 0.125 | 0.107 | 0.117 | – | – | – | – | 0.0906 | 0.108 | – | – | – | 0.128 | – | – | 0.0957 | 0.138 | – | 0.113 |
| A207E | 0.142 | 0.123 | 0.125 | 0.0964 | – | – | 0.144 | – | – | – | – | 0.161 | – | 0.113 | – | – | – | – | 0.0768 |
| A207Y | 0.0927 | – | 0.111 | – | – | 0.0843 | – | 0.08 | 0.102 | 0.126 | 0.0909 | 0.098 | – | 0.0761 | – | 0.132 | 0.0701 | – | 0.104 |
| L211C | 0.126 | 0.105 | – | – | – | 0.098 | – | – | – | 0.127 | 0.107 | 0.0979 | 0.154 | 0.0977 | 0.094 | 0.0981 | 0.127 | 0.123 | – |
| L211V | 0.108 | 0.1 | 0.147 | 0.144 | – | 0.0759 | – | – | – | 0.124 | 0.109 | – | – | – | – | 0.102 | 0.118 | – | – |
| W212D | 0.156 | – | 0.0735 | – | 0.0562 | – | 0.066 | 0.0547 | 0.0755 | 0.0566 | 0.0567 | – | – | 0.0617 | – | 0.0811 | 0.059 | – | 0.0681 |
| G213M | 0.0316 | 0.0594 | 0.07 | – | 0.0561 | 0.0634 | 0.0681 | 0.0521 | – | 0.0715 | 0.0611 | 0.0623 | – | 0.0506 | 0.0512 | 0.0777 | – | 0.0492 | 0.0748 |
| G213W | 0.0602 | 0.0538 | 0.0365 | 0.0514 | – | 0.0538 | 0.0572 | 0.0654 | 0.054 | 0.0634 | 0.0532 | 0.0685 | 0.0715 | 0.0594 | 0.0456 | 0.0204 | – | 0.0498 | 0.0497 |
| G214A | 0.0924 | 0.0828 | – | – | – | 0.0819 | 0.0913 | 0.0575 | 0.136 | 0.0796 | 0.0923 | 0.0638 | – | – | 0.0846 | 0.0608 | 0.0938 | 0.0912 | – |
| H215E | 0.072 | 0.0567 | 0.0692 | 0.0596 | 0.0644 | 0.0666 | 0.0455 | – | 0.0614 | – | 0.0651 | 0.0679 | 0.0686 | 0.0587 | – | – | – | 0.06 | 0.0666 |
| H215R | 0.0615 | 0.0965 | 0.0805 | – | 0.0315 | – | 0.0666 | – | 0.0808 | 0.0765 | 0.0618 | 0.0725 | – | – | 0.0877 | – | – | 0.0868 | – |
| F218L | 0.101 | 0.118 | 0.125 | – | 0.0755 | 0.103 | 0.0859 | 0.0931 | 0.151 | – | – | – | – | 0.108 | – | 0.0763 | – | 0.114 | 0.131 |
| V220A | 0.135 | 0.128 | 0.117 | – | – | 0.0972 | 0.097 | – | – | – | 0.0775 | 0.109 | – | 0.0938 | 0.0991 | – | – | – | 0.152 |
| P222Q | 0.12 | 0.126 | 0.11 | – | – | 0.0976 | 0.108 | – | 0.0994 | 0.107 | 0.0916 | 0.107 | 0.107 | 0.0987 | 0.0967 | – | – | 0.109 | 0.133 |
| E223C | 0.107 | 0.0952 | 0.0821 | – | 0.089 | 0.0994 | – | 0.0919 | 0.104 | 0.0781 | 0.0825 | 0.0918 | – | 0.0838 | 0.0913 | – | – | – | 0.131 |
| E223R | 0.111 | 0.113 | 0.0913 | 0.0597 | 0.086 | 0.0577 | 0.0842 | 0.0718 | – | 0.0967 | 0.0933 | 0.0822 | 0.0972 | – | – | 0.0849 | 0.108 | 0.094 | 0.0997 |
| F226A | 0.122 | 0.0673 | 0.149 | – | 0.0989 | 0.108 | 0.102 | – | – | 0.0887 | – | 0.112 | 0.121 | – | – | – | 0.111 | – | – |
| F226K | 0.127 | 0.111 | 0.102 | – | – | 0.122 | 0.111 | – | 0.117 | 0.143 | 0.0652 | 0.101 | 0.109 | 0.102 | 0.11 | 0.101 | 0.124 | 0.12 | 0.145 |
| Q227T | 0.131 | – | – | – | – | 0.102 | 0.115 | 0.0721 | 0.12 | – | 0.109 | 0.122 | – | – | 0.0983 | 0.111 | 0.127 | 0.0975 | 0.109 |
| K230L | 0.104 | 0.101 | – | – | – | 0.0597 | 0.0743 | – | 0.102 | – | – | 0.0931 | 0.11 | 0.0818 | – | 0.101 | – | – | 0.0911 |
